# Experimental data taken from PubChem BioAssay AID624202 (National Center for Advancing Translational Sciences (NCATS), 2012).
# Out of some 380,000 compounds screened, about 4,000 (1.1%) were called active. Inconclusive results, whose numbers are uncertain, are shown with a selection of clear calls. The call rests on the fitted dose curve; in most records, active means well fitted activation curve with a large enough effect; inconclusive means small, poorly fitted or top-dose-only effect; inactive means no such curve, though single readings can be large or run the other way. Potencies beside an inconclusive call are fits to weak or partial responses and may not hold up.
# Assay: qHTS Assay to Identify Small Molecule Activators of BRCA1 Expression; further: nearly all actives have a fitted effect of over 80% in size
# Settings: MCF7-BRCA1-FFLuc reporter, luminescence, 48 h; activation: at 46.1 µM (top of the series), scaled: vehicle 0%, 10 µM genistein 100% unless noted
# Method in brief: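 Activators of BRCA1 expression were detected as increased firefly luciferase luminescence in engineered MCF7 cells after 48 h compound incubation. Signals were scaled to genistein 10 microM as full activation.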
# Potency means the concentration at half of the fitted maximal effect; tags describe the fitted curve by direction and shape.
Structure (SMILES),Potency,activation
Nc1ccc(/C=C/c2ccc3cccnc3c2)cc1,"inconclusive: 0.501 µM [activator, full curve, poor fit]",–
CCCCN(C)C(=O)CCC(=O)Nc1ccc2nc(N3CCOCC3)cc(C)c2c1,"inconclusive: 2.51 µM [activator, full curve, poor fit]",–
COc1cccc2c(=O)c3c(cnn3C)n(C)c12,"inconclusive: 35.5 µM [activator, single point]",–
CC(C)(C)c1ccc(-c2noc(-c3ccc4c(c3)CCO4)n2)cc1,"inconclusive: 2.24 µM [activator, partial curve, poor fit]",–
CCOC(=O)C1CCN(C(=O)Nc2ccc3c(c2)nc(C)n3C)CC1,"inconclusive: 2.82 µM [activator, full curve, poor fit]",–
CCN=C1Sc2nc3ccc(OCC)cc3cc2CN1CCOC,–,inactive: -7.85%
CN1CCN(c2ccc(NC(=O)c3ccc(Br)o3)cc2)CC1,"inconclusive: 1.58 µM [activator, partial curve, poor fit]",–
CCOC(=O)Cc1csc(NC(=O)C(C)(C)CC)n1,"inconclusive: 35.5 µM [activator, single point]",–
COc1ccccc1N1CCN(Cc2cc(=O)oc3ccccc23)CC1,–,inactive: 18.1%
Cc1ccc(C(=O)NCCc2c[nH]c3ccccc23)s1,active: 3.16 µM,–
O=c1/c(=C/c2ccc(O)cc2)sc2n1CCCN=2,"inconclusive: 2 µM [activator, full curve, poor fit]",–
O=C(c1ccc(S(=O)(=O)c2cccc(Cl)c2)c([N+](=O)[O-])c1)N1CCN(c2ccccn2)CC1,–,inactive: -90.7%
CCc1ccccc1N(C)S(=O)(=O)c1ccc2c(c1)C(C)(C)C(=O)N2C,–,inactive: -4.66%
CCc1ccc(NC(=O)C(=O)NCc2ccccn2)cc1,active: 3.55 µM,–
O=C(c1ccc(COc2ccc(Cl)cc2)cc1)N1CCCCC1,active: 3.16 µM,–
COc1cc([N+](=O)[O-])cc(/C=N/NC(=O)c2cc(C)nc3ccccc23)c1O,–,inactive: -41.8%
O=[N+]([O-])c1ccc(-c2cn3ccccc3n2)cc1,"inconclusive: 1 µM [activator, full curve, poor fit]",–
Clc1cccc(-c2nc3ccc(Cl)cn3c2Cc2ccsc2)c1,active: 12.6 µM,–
O=c1c2ccccc2ncn1/N=C/c1ccccc1,"inconclusive: 6.31 µM [activator, full curve, poor fit]",–
CCOc1ccc(OCc2ccc(C(=O)N3CCc4ccccc4C3)o2)cc1,"inconclusive: 11.2 µM [activator, partial curve, poor fit]",–
